Reference: PubChem BioAssay AID1745853 (National Center for Advancing Translational Sciences (NCATS), 2022)
The list shows a part of the results. Shown are side measurements of this screen, not its main read-out; they come without a call.

How the values were obtained:
Experiment in all cases: Primary Screen for Target Class Profiling of Small Molecule Inhibitors of Methyltransferases
[1] = target: Glycine N-methyltransferase (Homo sapiens) (UniProt Q14749); settings: purified enzyme, MTase-Glo SAH luminescence; measured here: GNMT inhibition; at 40 µM; stronger effect = lower value
In short: (§1)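 Each enzyme was assayed with SAM and its substrate. SAH formation detected by MTase-Glo luminescence; single-point 40 uM screen[…].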

[2] = target: Guanidinoacetate N-methyltransferase (Homo sapiens) (UniProt Q14353); settings: purified enzyme, MTase-Glo SAH luminescence; measured here: GAMT inhibition; at 40 µM; stronger effect = lower value
In short: as §1

[3] = target: Histamine N-methyltransferase (Homo sapiens) (UniProt P50135); settings: purified enzyme, MTase-Glo SAH luminescence; measured here: HNMT inhibition; at 40 µM; stronger effect = lower value
In short: as §1

[4] = target: Nicotinamide N-methyltransferase (Homo sapiens) (UniProt P40261); settings: purified enzyme, MTase-Glo SAH luminescence; measured here: NNMT inhibition; at 40 µM; stronger effect = lower value
In short: as §1

[5] = target: Phenylethanolamine N-methyltransferase (Homo sapiens) (UniProt P11086); settings: purified enzyme, MTase-Glo SAH luminescence; measured here: PNMT inhibition; at 40 µM; stronger effect = lower value
In short: as §1
% is scaled to controls: 0 for no effect and ±100 for the full control effect.

SMILES	activity change, negative = inhibition [1] [%]	activity change, negative = inhibition [2] [%]	activity change, negative = inhibition [3] [%]	activity change, negative = inhibition [4] [%]	activity change, negative = inhibition [5] [%]
CC(=O)NC1CC2(CCN(C(=O)CCCNC(=O)OC(C)(C)C)CC2)Oc2ccccc21 (stereo not given)	-6.67	-10.4	-5.07	-11.6	-13.2
Cc1nn2c(c1-c1ccccc1[S+](C)(=O)[O-])N(CCCc1ccccc1)CCC2	-11.2	-7.45	-20.8	-17	-6.46
COc1ccc(OC)c(NC(=O)CN(C)S(=O)(=O)c2ccc3[nH]c4c(c3c2)CCCC4)c1	-7.25	1.89	-3.97	-1.97	0.047
O=C(NCC1CCN(Cc2cccc(Cl)c2)CC1)[C@@H]1CCCN(c2ncnc3c2nc2n3CCCC2)C1	-5.55	-2.19	-12.1	-29.9	-0.231
CCOC(=O)c1cc2n(n1)CC(C)(C(=O)NCc1ccc(C)cc1)N(c1ccc(CC)cc1)C2=O (stereo not given)	2.27	0	5.63	6.11	1.23
CCC(C)NC(=O)c1ccc2c(=O)n(CC(C)C)c3nn(CC(=O)c4ccccc4)c(=O)n3c2c1 (stereo not given)	0.509	-1.6	5.3	-6.35	-1.64
COc1ccc(NC(=O)Cn2nc3n(Cc4ccc(C)cc4)c(=O)c4ccccc4n3c2=O)cc1OC	3.58	1.83	11.2	9.39	6.54
COCCCNc1nc2c(S(=O)(=O)c3cc(C)ccc3C)nnn2c2ccccc12	-17	4.5	-1.93	-4.14	-7.41
COC(=O)CNC(=O)c1cn2cc(-c3cccc(C(F)(F)F)c3)sc2n1	-4.25	-6.71	-2.23	-15.6	-9.63
CC1(O)CC(O)C2C(C(=O)O)=COC(OC3OC(CO)C(O)C(O)C3OC(=O)/C=C/c3ccc(O)cc3)C21 (stereo not given)	1.17	5.19	1.57	-8.86	5.51
C=C(C)C(=O)O[C@H]1C[C@@](C)(OC(C)=O)[C@@]2(O)CC[C@@](C)(O)[C@H](OC(C)=O)[C@@]23OC(=O)C(COC)=C13	0	6.01	8.83	-6.01	3.19
CCC1c2ccc(C)n2CCN1C(=O)Nc1ccc2c(c1)OCCO2 (stereo not given)	-3.17	2.87	-11	-3.69	-4
CCOC(=O)c1cc2n(n1)CC(C)(C(=O)NCCOC)N(c1ccc(Cl)cc1)C2=O (stereo not given)	4.81	4.49	7.42	0.491	2.22
N#Cc1cccc(C(=O)Nc2ccc([C@H]3OCC(=O)N(Cc4ccc(F)cc4)[C@@H]3CO)cc2)c1	-4.8	-1.62	-1.17	-4.56	0.513
CCOc1ccc(CCNC(=O)c2cc3n(n2)CC(C)(C(=O)NC2CCCC2)N(CC)C3=O)cc1 (stereo not given)	8.03	1.84	-0.547	8.08	4.89
CCOC(=O)c1ccc2c(c1)[C@@H]1C=CC[C@@H]1[C@H](c1cccc(Cl)c1)N2	-10.7	-1.09	-13.3	-8.93	-15.8
O=C1CCCCC(CNC(=O)c2ccc3ccccc3n2)N1 (stereo not given)	-8.41	-8.36	-4.28	-12.6	-10.1
COc1ccc(C)cc1NS(=O)(=O)c1ccc2c(c1)n(C)c(=O)n2C	3.95	0	7	6.77	1.75
C/C=C/C=C/C=C/C(=O)O[C@@H]1C=C(CO)[C@](O)(CO)[C@@]2(C)CCCC(C)(C)[C@H]12	0	1.69	0.102	-11.4	4.13
CN1CCCC1c1nc(C2CN(S(=O)(=O)Cc3ccccc3F)C2)no1 (stereo not given)	-5.85	-9.45	-4.61	-16.1	-9.46
Cc1ccc(CSc2nnc3n(CC(C)C)c(=O)c4cc(F)ccc4n23)cc1	4.27	4.76	8.18	1.05	2.36
CCN1CCN(C(=O)Cn2c(=O)oc3cc(S(=O)(=O)N4CC(C)CC(C)C4)ccc32)CC1 (stereo not given)	3.25	5.58	4.65	13.9	1.5
O=C(c1cc[nH]c1C1CCCNC1)N(Cc1ccc(F)cc1)Cc1cccnc1 (stereo not given)	-5.92	-7.99	-35.1	-17.3	6.64
Cc1ccc(Cl)cc1NC(=O)Cn1nc2n(CCC(C)C)c(=O)c3ccccc3n2c1=O	1.61	-1.26	1.34	-0.091	-0.632
O=c1n(CC2CC2)nc2n1CCN(S(=O)(=O)Cc1ccccc1)CC2	-3.79	-6.08	-2.82	-6.51	-12
COc1ccc(CC(=O)N[C@H](C)c2onc(C)c2C(=O)O)cc1	-0.218	-2.72	-1.21	-3.68	-3.94
COc1ccc(OC)c(S(=O)(=O)Nc2ccc3c(c2)n(C)c(=O)n3C)c1	12.9	1.79	5.04	1.98	-4.48
O=C1C(SCCO)=C(SCCO)C(=O)c2ccccc21	-83.2	-16.3	-9.09	-12.9	-71.1
